Measurements: paper PMC4336329 (PLoS ONE, 2015)
About 2,200 (0.71%) of roughly 310,000 compounds showed an effect of 50% or more. The effect is printed as a negative number. The list shows a part of the results.

What follows are compounds tested against human ether-à-go-go-related gene (hERG) potassium channel (human, UniProt Q12809) (assay: primary screen, population patch clamp on CHO cells stably expressing hERG).
human ether-à-go-go-related gene (hERG) potassium channel, sequence (Q12809 whole entry, looked up): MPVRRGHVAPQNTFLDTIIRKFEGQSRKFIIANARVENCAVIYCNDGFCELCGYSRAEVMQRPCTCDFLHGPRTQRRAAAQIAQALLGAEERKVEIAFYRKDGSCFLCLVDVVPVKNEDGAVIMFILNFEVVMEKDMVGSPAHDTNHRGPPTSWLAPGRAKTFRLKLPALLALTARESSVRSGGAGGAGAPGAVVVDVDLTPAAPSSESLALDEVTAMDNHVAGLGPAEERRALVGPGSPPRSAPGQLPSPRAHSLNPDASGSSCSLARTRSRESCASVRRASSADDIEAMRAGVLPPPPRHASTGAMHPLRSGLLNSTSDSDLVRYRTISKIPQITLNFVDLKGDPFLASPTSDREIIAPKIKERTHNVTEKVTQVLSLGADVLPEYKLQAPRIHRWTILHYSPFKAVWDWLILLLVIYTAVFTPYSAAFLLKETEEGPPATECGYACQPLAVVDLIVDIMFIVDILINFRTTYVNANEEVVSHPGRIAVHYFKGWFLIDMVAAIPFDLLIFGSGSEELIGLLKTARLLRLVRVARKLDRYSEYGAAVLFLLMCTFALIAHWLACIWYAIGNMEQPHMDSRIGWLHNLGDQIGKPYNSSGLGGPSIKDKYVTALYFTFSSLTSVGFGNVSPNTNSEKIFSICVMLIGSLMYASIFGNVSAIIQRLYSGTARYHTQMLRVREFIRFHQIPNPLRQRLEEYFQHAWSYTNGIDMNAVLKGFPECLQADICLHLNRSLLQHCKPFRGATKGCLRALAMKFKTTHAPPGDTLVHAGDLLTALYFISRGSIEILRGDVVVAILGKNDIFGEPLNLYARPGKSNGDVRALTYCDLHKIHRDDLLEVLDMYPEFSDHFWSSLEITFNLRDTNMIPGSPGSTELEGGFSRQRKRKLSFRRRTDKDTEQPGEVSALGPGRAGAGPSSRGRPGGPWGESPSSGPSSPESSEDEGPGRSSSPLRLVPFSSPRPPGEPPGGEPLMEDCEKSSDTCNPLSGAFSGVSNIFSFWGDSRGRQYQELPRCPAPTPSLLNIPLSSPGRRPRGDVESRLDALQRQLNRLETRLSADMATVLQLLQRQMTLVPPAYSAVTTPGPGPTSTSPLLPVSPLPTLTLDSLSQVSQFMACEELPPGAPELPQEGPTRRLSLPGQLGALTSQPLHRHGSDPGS

Row | SMILES | hERG current change (%, negative = inhibition) at 1uM [%]
1 | COc1ccccc1C(=O)OCc1c(F)cccc1Cl | 8.76
2 | Cn1c(=O)c2c(ncn2CC(=O)Nc2ccccc2)n(C)c1=O | 8.18
3 | CCC1(c2ccccc2)NC(=O)N(CC#N)C1=O (stereo not shown) | 18
4 | COc1ccc2sc(-c3ccc(N(C)C)cc3)c(C#CCCO)c2c1 | 17.8
5 | COc1ccc(/C=N/NC(=O)CNC(=O)c2ccncc2)cc1 | 14.8
6 | Cc1ccc(-c2cc(C(=O)NCc3ccccn3)c3ccccc3n2)cc1 | 2.69
7 | CC1CCN(c2c(NCC3CCC(C(=O)N4CCCCC4)CC3)c(=O)c2=O)CC1 (stereo not shown) | 17.7
8 | Cc1cc(-c2ccc(C(=O)O)s2)cnc1N | -2.15
9 | Cc1sc2nc(C3CCCCC3)nc(SCC(=O)N3CC(=O)Nc4ccccc43)c2c1C | 39.7
10 | O=C(CN(C(=O)c1ccc(Cl)cc1)C1CCCCC1)Nc1ccc(Cl)c([N+](=O)[O-])c1 | 3.68
11 | c1ccc(Cc2nnc(N3CCOCC3)c3ccccc23)cc1 | 5.45
12 | CC(C)c1cc(Br)c(NC(=O)Nc2cccnc2)c(Br)c1 | 15.7
13 | CCn1cc(C(=O)N[C@@H](CCSC)C(=O)NCCCOC)c(=O)c2cc3c(cc21)OCO3 | 16.9
14 | CC(=O)NS(=O)(=O)c1ccc(NC(=O)c2cccc(OCc3c(C)noc3C)c2)cc1 | 5.78
15 | Cc1cccc(C)c1NC(=O)COC(=O)C1CC1 | 8.49
16 | COc1ccc(S(=O)(=O)CC(=O)c2cc3cccc(C)c3oc2=O)cc1 | 12.7
17 | CC(=O)C1C(c2ccc(Br)cc2)C2C(C)=NN=C2CC1(C)O (stereo not shown) | 9.68
18 | Cc1nc(C)n(C(C)CNC(=O)c2ccccc2)n1 (stereo not shown) | 13.8
19 | COc1ccc(S(=O)(=O)N(C)C)cc1NC(=O)COC(=O)c1nn(C)c(=O)c2ccccc12 | 6.18
20 | C=CCc1cccc(/C=N/c2ncn[nH]2)c1O | 3.09
21 | c1ccc(-c2nn3c(C4CCCCC4)nnc3s2)nc1 | 11
22 | Cc1cc(C)cc(-n2ccnc2SCC(=O)O)c1 | 5.33

Row | SMILES | hERG current change (%, negative = inhibition) at 1uM [%]
23 | CC(=O)NCCOC(=O)c1nn(Cc2ccccc2)c(=O)c2ccccc12 | 5.29
24 | COc1cc(NC2c3ccccc3C(=O)N2Cc2ccccc2Cl)cc(OC)c1OC (stereo not shown) | 2.33
25 | CCC1CCCCN1C(=O)CCNC(=O)Cn1cnc2ccccc2c1=O (stereo not shown) | 16.5
26 | COc1ccccc1CNS(=O)(=O)CC12CCC(CC1=O)C2(C)C (stereo not shown) | 6.62
27 | O=C(Nc1ccc([N+](=O)[O-])cc1Br)c1cccnc1 | 2.74
28 | COc1ccc(S(=O)(=O)/N=C2/NC(=O)/C(=C/c3ccco3)S2)cc1 | 12.5
29 | COC(=O)c1ccccc1NC(=O)Cc1nc(-c2ccccc2)sc1-c1ccc(C)cc1 | -2.02
30 | CCOC(=O)c1c(C)[nH]c(C(=O)COC(=O)c2ccncc2)c1C | 4.1
31 | CC(=O)c1c(C)cc(C)c(CSc2nc(C)cc(=O)[nH]2)c1C | 6.99
32 | CC(C)Oc1cccc(C(=O)NC(=S)Nc2cccc(C(F)(F)F)c2)c1 | 10.4
33 | CCc1noc(C)c1C(=O)NCCc1c[nH]c2ccccc12 | 7.87
34 | O=C(NCc1ccccc1)C(c1ccc(F)cc1)N(C(=O)c1csnn1)C1CCCC1 (stereo not shown) | 7.93
35 | COc1ccc(C(=O)C2CCCN(C(=O)c3cnsn3)C2)c(C)c1 (stereo not shown) | 10.4
36 | COc1cc(C(=O)NCc2ccc(C)cc2)ccc1OC(F)F | 2.75
37 | O=C(CNS(=O)(=O)c1ccccc1F)Nc1ccc(N2CCOCC2)cc1 | -0.205
38 | CC1(C(=O)Nc2nc3ccccc3s2)CC1(Br)Br (stereo not shown) | 12.2
39 | Cc1cc(Nc2cccc(Cl)c2)nc(N2CCOCC2)n1 | 10.9
40 | Cc1ccc(OC(=O)CCC(=O)Nc2ccc(C(N)=O)cc2)cc1 | 15.5
41 | COCC(C)NC(=O)NC1(C(F)(F)F)Oc2ccc(Cl)cc2O1 (stereo not shown) | 13.6
42 | CC(=O)NC1C(=O)N=C(SCC(=O)Nc2c(C)cccc2C)NC1=O (stereo not shown) | 6.15
43 | Nc1cc(-c2ccccc2)nn1S(=O)(=O)c1ccc(Br)cc1 | 14.8
44 | COc1ccc(NC(=O)C2CCC(CNc3c(N4CCOCC4)c(=O)c3=O)CC2)cc1Cl (stereo not shown) | 27.6

Row | SMILES | hERG current change (%, negative = inhibition) at 1uM [%]
45 | C/C(CC(c1ccccc1)c1c(O)c2ccccc2oc1=O)=N\NC(N)=S (stereo not shown) | 8.07
46 | O=S(=O)(c1ccc(Cl)cc1)N1CCN(Cc2ccc(O)c3ncccc23)CC1 | 3.27
47 | Cc1ccc(CCC(=O)Nc2ccc(N(C)C)cc2)o1 | 4
48 | CCOc1ccc(NC(=O)CSc2nnc(Cn3cnc4ccccc43)n2C)cc1 | -3.91
49 | O=C(NCCCn1ccnc1)c1nn2c(C(F)(F)F)cc(-c3ccccc3)nc2c1Cl | 0.542
50 | O=C(Cc1c(F)c(F)c(F)c(F)c1F)Nc1nc(-c2ccccc2)cs1 | 9.84
51 | O=C1NC(=O)C(CCc2ccncc2)(Cc2ccc3c(c2)OCO3)C(=O)N1CCc1ccccc1 (stereo not shown) | -10.8
52 | COc1ccc(NC(=S)N2CCN(c3ncccn3)CC2)cc1 | 17.7
53 | Clc1ccc(CNCc2cccs2)cc1Cl | 19.2
54 | CCCCN(C(=O)/C=C/c1ccc(OCC(C)C)c(OCC)c1)c1c(N)n(CCC)c(=O)[nH]c1=O | 6.21
55 | O=C(CSc1nc2ccccc2n1-c1ccccc1)NCC1CCCO1 (stereo not shown) | -5.93
56 | Cc1occc1C(=O)NNC(=S)Nc1ccccc1C(F)(F)F | 12.2
57 | COC(=O)c1c(NC(=O)CN2C(=O)NC3(CCc4ccccc4C3)C2=O)sc2c1CCCCC2 (stereo not shown) | 13.3
58 | CC(C)(C)c1ccc(Oc2ccc(NC(=O)CCCC(=O)O)cn2)cc1 | 15.4
59 | CN1CCN(CCCNCc2cn(CCC#N)c3ccccc23)CC1.O=C(O)C(=O)O | 7.34
60 | O=C(COC(=O)/C=C/c1ccc(F)cc1)Nc1ccc2[nH]c(=O)[nH]c2c1 | 12.9
61 | CCCCCn1nc(C(=O)N2CCc3ccccc32)c2ccccc2c1=O | 7.31
62 | O=[N+]([O-])c1ccc(N2CCN(Cc3ccc(Br)o3)CC2)cc1 | -32.6
63 | CCOc1cc(C=C2C(=O)NC(=O)NC2=O)cc([N+](=O)[O-])c1O | 17.4
64 | Cc1cccc(NC(=S)N/N=C/c2cccc(O)c2)c1C | 16.6
65 | COc1ccc2[nH]c(C)c(CCN(Cc3cccs3)C(=S)Nc3ccccc3)c2c1 | 6.37
66 | O[C@H]1COC2C1OC[C@@H]2O (stereo partly shown) | 2.29

Row | SMILES | hERG current change (%, negative = inhibition) at 1uM [%]
67 | C=CCn1c(NC(=O)c2ccccc2)nc2ccccc21 | 14.9
68 | O=C(N/N=C/c1ccccc1C(F)(F)F)c1ccc2nc[nH]c2c1 | 21.1
69 | O=C(NCc1ccccc1)C(c1c(F)cccc1Cl)N(C(=O)c1csnn1)C1CC1 (stereo not shown) | 10.9
70 | COc1ccc(-n2nc(C(=O)NCC(=O)Nc3cccc(Cl)c3)c3ccccc3c2=O)cc1OC | 10.4
71 | C=CCn1c(C)cc(C2=NNC(=NCC)SC2)c1C.Cl | 5.71
72 | Cc1ccc(-n2c(O)c(C=NCc3cccnc3)c(=O)[nH]c2=O)cc1C | 8.61
73 | CCOC(=O)C1=C(C)Nc2ccccc2N=C1NC(=O)c1ccc(Cl)c(S(=O)(=O)N2CCCC2)c1 | 3.92
74 | C/C(=C\C(=O)c1ccc(Br)cc1)NCc1ccc2c(c1)OCO2 | 5.64
75 | C/C(=N/NC(=O)CCC(=O)Nc1ccc(Br)cc1)c1ccc(Br)cc1 | 5.74
76 | COc1cccc(NC(=O)CN(C)C(=O)c2ccc3ccccc3c2)c1 | 5.88
77 | COc1ccc(Cc2n[nH]c(=S)n2NC(=O)Nc2ccc(Cl)c(Cl)c2)cc1 | 10.2
78 | CC(=O)C1=C(O)C(=O)OC1c1ccc(C)cc1 (stereo not shown) | 22.7
79 | C/C(Cn1nc([N+](=O)[O-])cc1C)=N\NC(=O)COc1ccc(Cl)cc1Cl | -51.3
80 | COc1ccc(S(=O)(=O)N2CCC(C(=O)NCc3ccccn3)CC2)cc1OC | 1.82
81 | COc1ccc(S(=O)(=O)NCc2ccccn2)cc1NC(=O)c1ccccc1 | 14.8
82 | O=C(CCN1C(=O)/C(=C\C=C\c2ccccc2)SC1=S)Nc1ccccc1C(=O)O | -2.02
83 | CCCn1c(SCC(=O)Nc2cc(Cl)ccc2OC)nc(O)cc1=O | 3.88
84 | Nc1cc(-c2ccccc2)nn1S(=O)(=O)c1ccc(F)cc1 | 8.6
85 | CN(C)c1nnnn1-c1ccc(Cl)cc1 | 4.98
86 | COc1ccc2c(c1)[nH]c1c(N3CCSCC3)ncnc12 | 6.58
87 | COc1cccc(/C=N/NC(=O)C(=O)N/N=C/c2cccc(OC)c2OC)c1OC | 8.07
88 | CN(C)Cc1cc(O)c(CN(C)C)cc1O | 14.7
